{"source": "paper PMC4336329", "about": "(PLoS ONE, 2015)", "note": "Out of some 310,000 compounds screened, about 14,000 (4.5%) showed an effect of 50% or more. The effect is printed as a negative number. Some of the results follow.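 Note: peak tail current of the secondary pulse compared with the same well before compound.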"}
{"biological_target": "human ether-à-go-go-related gene (hERG) potassium channel (human, UniProt Q12809)", "sequence (Q12809 whole entry, looked up)": "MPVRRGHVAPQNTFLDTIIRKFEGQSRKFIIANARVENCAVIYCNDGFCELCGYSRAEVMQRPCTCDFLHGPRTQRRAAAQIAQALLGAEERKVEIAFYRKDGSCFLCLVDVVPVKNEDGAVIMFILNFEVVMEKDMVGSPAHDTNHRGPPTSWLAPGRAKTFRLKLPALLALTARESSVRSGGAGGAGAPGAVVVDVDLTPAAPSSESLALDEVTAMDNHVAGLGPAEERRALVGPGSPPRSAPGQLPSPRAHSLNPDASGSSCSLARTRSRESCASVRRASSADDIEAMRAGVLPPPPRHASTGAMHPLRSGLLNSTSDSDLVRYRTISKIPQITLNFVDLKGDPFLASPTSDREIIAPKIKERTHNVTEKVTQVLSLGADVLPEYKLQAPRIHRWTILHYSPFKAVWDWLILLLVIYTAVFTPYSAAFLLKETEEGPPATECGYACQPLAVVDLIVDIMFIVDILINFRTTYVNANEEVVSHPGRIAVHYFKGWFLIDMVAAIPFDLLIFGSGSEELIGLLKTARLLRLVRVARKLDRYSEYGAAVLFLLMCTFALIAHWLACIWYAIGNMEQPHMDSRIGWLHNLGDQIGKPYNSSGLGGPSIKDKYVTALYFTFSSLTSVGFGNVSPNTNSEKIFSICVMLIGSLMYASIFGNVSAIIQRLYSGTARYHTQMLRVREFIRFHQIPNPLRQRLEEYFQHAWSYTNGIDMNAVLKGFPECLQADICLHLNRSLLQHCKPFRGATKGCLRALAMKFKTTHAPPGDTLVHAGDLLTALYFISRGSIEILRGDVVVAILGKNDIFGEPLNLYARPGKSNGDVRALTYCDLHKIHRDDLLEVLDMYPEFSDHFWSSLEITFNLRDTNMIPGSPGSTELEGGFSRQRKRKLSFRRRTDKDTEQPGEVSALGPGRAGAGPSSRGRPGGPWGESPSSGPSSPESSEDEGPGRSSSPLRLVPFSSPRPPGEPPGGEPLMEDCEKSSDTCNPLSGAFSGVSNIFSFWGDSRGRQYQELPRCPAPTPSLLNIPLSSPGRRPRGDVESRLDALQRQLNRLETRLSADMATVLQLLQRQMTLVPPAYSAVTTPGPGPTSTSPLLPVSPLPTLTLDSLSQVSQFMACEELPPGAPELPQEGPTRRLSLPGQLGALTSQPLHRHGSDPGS", "assay": "primary screen, population patch clamp on CHO cells stably expressing hERG", "units": {"hERG current change (%, negative = inhibition) at 10uM": "%"}}
{"smiles": "COC(=O)C1=C(c2ccccc2)C[C@@H]2CC[C@H]1N2C(=O)NC(C)C", "hERG current change (%, negative = inhibition) at 10uM": -3.45}
{"smiles": "CO/N=C/C1CCN(c2ncc(C(F)(F)F)cc2Cl)C1=O", "note": "(stereo not shown)", "hERG current change (%, negative = inhibition) at 10uM": 9.39}
{"smiles": "CC(=NCCCNC1CCCCC1)C1=C(O)CC(C)(C)CC1=O", "hERG current change (%, negative = inhibition) at 10uM": 10.8}
{"smiles": "S=c1[nH]nc(Cn2cnc3ccccc32)n1-c1ccccc1", "hERG current change (%, negative = inhibition) at 10uM": 17.1}
{"smiles": "COc1ccc(-c2cc(C(F)(F)F)nc(-n3cc(Cl)cn3)n2)cc1", "hERG current change (%, negative = inhibition) at 10uM": -18.5}
{"smiles": "O=C(O)CCCC(=O)N1N=C(c2ccccc2)CC1c1ccc2c(c1)OCO2", "note": "(stereo not shown)", "hERG current change (%, negative = inhibition) at 10uM": 21.2}
{"smiles": "CC(=O)CCc1oc2c([N+](=O)[O-])cccc2c1-c1ccc(C)o1", "hERG current change (%, negative = inhibition) at 10uM": 29.1}
{"smiles": "CN1CCSc2ccc(C(=O)NCc3cccc(F)c3)cc21", "hERG current change (%, negative = inhibition) at 10uM": 16.6}
{"smiles": "CCOc1ccc(Cl)cc1CNCCNCC(C)O.Cl", "note": "(stereo not shown)", "hERG current change (%, negative = inhibition) at 10uM": -4.31}
{"smiles": "COC(=O)c1sccc1NC(=O)c1ccc2c(c1)OCO2", "hERG current change (%, negative = inhibition) at 10uM": -6.39}
{"smiles": "COc1ccc(CCN2CN(S(=O)(=O)c3ccc(C)cc3)c3nc4ccccc4nc32)cc1OC", "hERG current change (%, negative = inhibition) at 10uM": 5.58}
{"smiles": "CSc1ccccc1OCc1cc(C(=O)N2CCN(C3CCCC3)C(=O)C2)no1", "hERG current change (%, negative = inhibition) at 10uM": -34.8}
{"smiles": "Cc1ccc(O)c(N=Nc2ccccc2)n1", "hERG current change (%, negative = inhibition) at 10uM": 2.12}
{"smiles": "COc1ccc(-c2nsc3c(SCc4ccccc4)ncnc23)cc1", "hERG current change (%, negative = inhibition) at 10uM": 0.87}
{"smiles": "COc1ccc(S(=O)(=O)n2cccc2)cc1OC", "hERG current change (%, negative = inhibition) at 10uM": 11.4}
{"smiles": "Cc1cnn(-c2nc(-c3cccs3)cc(C(F)(F)F)n2)c1", "hERG current change (%, negative = inhibition) at 10uM": -21.9}
{"smiles": "Cc1sc2ncnc(N3CCC(C(=O)Nc4nnc(SCc5ccccc5F)s4)CC3)c2c1C", "hERG current change (%, negative = inhibition) at 10uM": 4.36}
{"smiles": "Cc1cc(=O)nc2c3ccccc3n(CC(=O)Nc3ccccc3Br)n12", "hERG current change (%, negative = inhibition) at 10uM": -7.45}
{"smiles": "COc1cccc(OCc2nc(-c3cccc([N+](=O)[O-])c3)no2)c1", "hERG current change (%, negative = inhibition) at 10uM": 19.7}
{"smiles": "CCc1noc(C)c1C(=O)N1CCC(CCC(=O)Nc2cccc(OC)c2)CC1", "hERG current change (%, negative = inhibition) at 10uM": -9.53}
{"smiles": "COc1ccc2c(c1)CCNC2Cc1ccc(OC)c(O)c1", "note": "(stereo not shown)", "hERG current change (%, negative = inhibition) at 10uM": -23}
{"smiles": "CS(=O)(=O)c1ccc2nc(NC(=O)c3ccccc3Br)sc2c1", "hERG current change (%, negative = inhibition) at 10uM": 4.15}
{"smiles": "CCCSc1nnc2nc(C)cc(C)n12", "hERG current change (%, negative = inhibition) at 10uM": -8.87}
{"smiles": "CCCC1=C(C(=O)OCC)C(c2ccco2)C(C#N)=C(N)O1", "note": "(stereo not shown)", "hERG current change (%, negative = inhibition) at 10uM": 5.85}
{"smiles": "NC(=O)CSc1oc(-c2ccco2)nc1S(=O)(=O)c1ccccc1", "hERG current change (%, negative = inhibition) at 10uM": 4.57}
{"smiles": "CN1C(=O)/C(=C2\\SC(=S)N(CCCCCC(=O)O)C2=O)c2ccccc21", "hERG current change (%, negative = inhibition) at 10uM": 9.23}
{"smiles": "Cc1sc2nc(CN3CCOCC3)nc(N3CCN(S(=O)(=O)c4ccccc4)CC3)c2c1C", "hERG current change (%, negative = inhibition) at 10uM": -41.6}
{"smiles": "Cc1ccnc(NS(=O)(=O)c2ccc(NC(=O)Cc3ccccc3)cc2)n1", "hERG current change (%, negative = inhibition) at 10uM": 5.26}
{"smiles": "CCOC(=O)c1c(C)[nH]c(C(=O)OCC(=O)NCCc2ccc(OCC)c(OCC)c2)c1C", "hERG current change (%, negative = inhibition) at 10uM": 19.8}
{"smiles": "CCOC(=O)c1c(NC(=S)NC)sc2c1CCCC2", "hERG current change (%, negative = inhibition) at 10uM": 18.3}
{"smiles": "CCC(C)NC(=O)CN1C(=O)CSc2ccc(S(=O)(=O)N3CCCC3)cc21", "note": "(stereo not shown)", "hERG current change (%, negative = inhibition) at 10uM": -1.43}
{"smiles": "Cn1c(Cl)c(/C=N/OC(=O)c2ccc(Cl)cc2)c2ccccc21", "hERG current change (%, negative = inhibition) at 10uM": -5.13}
{"smiles": "Cc1cc(C)c(OCC(=O)Nc2ccc3c(c2)OCO3)cc1C", "hERG current change (%, negative = inhibition) at 10uM": 5.91}
{"smiles": "Cc1cc(O)ccc1NC(=S)NC(=O)c1cncc(Br)c1", "hERG current change (%, negative = inhibition) at 10uM": 20.6}
{"smiles": "O=C(NNC1CC(=O)N(c2ccccc2)C1=O)c1ccccc1Cl", "note": "(stereo not shown)", "hERG current change (%, negative = inhibition) at 10uM": 14.6}
{"smiles": "COc1ccc(N(CC(=O)NCc2ccccc2)C(=O)CCC(=O)Nc2cc(C)ccn2)c(OC)c1", "hERG current change (%, negative = inhibition) at 10uM": -46.9}
{"smiles": "O=C(NC1CCCC1)C(c1ccccc1)N(Cc1ccc(F)cc1)C(=O)c1csnn1", "note": "(stereo not shown)", "hERG current change (%, negative = inhibition) at 10uM": -43.6}
{"smiles": "COc1ccc(C(=O)C2CCN(CC(=O)Nc3ccc(C)cc3)CC2)cc1", "hERG current change (%, negative = inhibition) at 10uM": -53.4}
{"smiles": "CCC(C)c1ccc(NC(=O)COC(=O)C2=COCCO2)cc1", "note": "(stereo not shown)", "hERG current change (%, negative = inhibition) at 10uM": -5.55}
{"smiles": "C[C@@H]1NC(=O)[C@H](CCC(N)=O)NC(=O)c2cc([N+](=O)[O-])cc(I)c2NCC[C@@H](C(N)=O)NC1=O", "hERG current change (%, negative = inhibition) at 10uM": 10.7}
{"smiles": "C[C@@H]1NC(=O)[C@H](CCCN=C(N)N)NC(=O)c2cc([N+](=O)[O-])cc(I)c2NCCC[C@@H](C(N)=O)NC1=O", "hERG current change (%, negative = inhibition) at 10uM": 12.2}
{"smiles": "CCOc1ccc(C(=O)N2CCN(CC(=O)N3CCCC3)CC2)cc1OCC", "hERG current change (%, negative = inhibition) at 10uM": -3.21}
{"smiles": "CC(C)(C)n1nc2c(c1NC(=O)c1ccc(Br)cc1)CS(=O)C2", "note": "(stereo not shown)", "hERG current change (%, negative = inhibition) at 10uM": -9.21}
{"smiles": "O=C(NCc1nnc(SCC(=O)N2CCOCC2)o1)c1c(F)cccc1Cl", "hERG current change (%, negative = inhibition) at 10uM": 4.85}
{"smiles": "CCCN(Cc1nc(-c2ccc(Cl)cc2)no1)CC1CCCO1", "note": "(stereo not shown)", "hERG current change (%, negative = inhibition) at 10uM": -8.15}
{"smiles": "CCOC(=O)N1CCN(C(=O)CN(Cc2ccc(Cl)cc2)S(=O)(=O)c2ccccc2)CC1", "hERG current change (%, negative = inhibition) at 10uM": -70.1}
{"smiles": "O=C(Cc1ccc([N+](=O)[O-])cc1)N/N=C/c1cccs1", "hERG current change (%, negative = inhibition) at 10uM": -11.7}
{"smiles": "Cc1ccc(/C=C2/NC(=O)N(Cc3ccc(Br)cc3)C2=O)o1", "hERG current change (%, negative = inhibition) at 10uM": -0.242}
{"smiles": "Cc1cc(=O)oc(C)c1C(=O)Nc1ccc2nsnc2c1", "hERG current change (%, negative = inhibition) at 10uM": 9.45}
{"smiles": "O=c1c(-c2ccc(O)cc2)coc2c(C3O[C@H](CO)[C@@H](O)[C@H](O)[C@H]3O)c(O)ccc12", "note": "(stereo partly shown)", "hERG current change (%, negative = inhibition) at 10uM": 32}
{"smiles": "CCOC(=O)C(C)Sc1ccc2nnc(CCNS(=O)(=O)c3ccc(C)cc3)n2n1", "note": "(stereo not shown)", "hERG current change (%, negative = inhibition) at 10uM": -42.1}
{"smiles": "COCCCNc1nc2ccccc2nc1NS(=O)(=O)c1cccc(Cl)c1", "hERG current change (%, negative = inhibition) at 10uM": 25.7}
{"smiles": "CCC(C)C(NC(=O)OCc1ccccc1)C(=O)OCN1C(=O)c2ccccc2C1=O", "note": "(stereo not shown)", "hERG current change (%, negative = inhibition) at 10uM": -2.01}
{"smiles": "CS(=O)(=O)N(CC(=O)N1CCCCC1)c1cccc(F)c1", "hERG current change (%, negative = inhibition) at 10uM": 13}
{"smiles": "Cn1c(=O)[nH]c(=O)c2c1nc(N/N=C/C(Br)=C/c1ccccc1)n2CCO", "hERG current change (%, negative = inhibition) at 10uM": 14.3}
